# Experimental data reported in ChEMBL document CHEMBL4888484, “Replenishing the malaria drug discovery pipeline: Screening and hit evaluation of the MMV Hit Generation Library 1 (HGL1) against asexual blood stage Plasmodium falciparum ,using a nano luciferase reporter read-out” (2022).
# Among all 150,000 compounds or so, about 540 (0.36%) showed an effect of 50% or more. This is one part of the list.
# Test system: Plasmodium falciparum
# Assay: Primary screen in NF54 nanoGlo assay, in single point, at 2uM, 72h; a lower Z score goes with more inhibition
# Type: functional, Erythrocyte
# Conditions: timepoint 72 hour
structure (smiles),measurement,value
Cc1cc(N(CCO)C2CC2)nc(C2CC2)n1,% Inhibition,35%
same,Z score,-4.72
CCOc1ccccc1C(=O)NC[C@@H](c1ccc(N(C)C)cc1)N1CCOCC1,% Inhibition,-15%
same,Z score,1.45
c1ccc2c(C3CC3c3nc(Cc4ccon4)no3)cccc2c1 (stereo not drawn),% Inhibition,-6%
same,Z score,0.9
COC(=O)C1CC12CCN(S(=O)(=O)CC(OC)C1CCC1)CC2 (stereo not drawn),% Inhibition,6%
same,Z score,-0.81
CCc1cc(C(=O)N(C)Cc2ccon2)ccn1,% Inhibition,-6%
same,Z score,1.26
N#Cc1cccnc1N(CCCO)Cc1cccnc1,% Inhibition,-14%
same,Z score,1.63
COC(=O)[C@H](Cc1cn(C)cn1)NS(=O)(=O)N(C)C1CCCC1,% Inhibition,-8%
same,Z score,1.07
O=C(Nc1nc(-c2ccccn2)cs1)c1cnn(Cc2ccccc2)c1,% Inhibition,-7%
same,Z score,1.09
Clc1ccc(OCCn2ccnn2)cc1,% Inhibition,2%
same,Z score,-0.17
CN(C[C@H]1CCOC1)c1nnnn1CC1CCC(C(F)(F)F)CC1 (stereo partly drawn),% Inhibition,-3%
same,Z score,0.53
CN1C[C@@H](NC(=O)Nc2ccc(Cl)c(C(F)(F)F)c2)CCC1=O,% Inhibition,8%
same,Z score,-1.31
Cc1nc(NC2CCCCC2)sc1C(=O)Nc1cccc(F)c1C,% Inhibition,-2%
same,Z score,0.19
CCS(=O)(=O)N(C)CC(=O)N1C(C)CC(c2ccccc2)C1C (stereo not drawn),% Inhibition,-8%
same,Z score,0.82
CCc1noc(-c2cccn2Cc2ccc(OC)c(F)c2)n1,% Inhibition,-2%
same,Z score,0.45
CC(C)Cc1ccc(CN2CCO[C@H](C(=O)O)C2)s1,% Inhibition,-11%
same,Z score,1.69
Cc1ccc(CNC(=O)NC2CCN(c3nc4cccnc4n(C)c3=O)CC2)cc1,% Inhibition,-15%
same,Z score,1.99
COc1cccc(C(=O)N2CCN(c3nc4nonc4nc3N3CCCC3)CC2)c1,% Inhibition,-2%
same,Z score,0.27
CCC(=O)N1CC[C@H](Nc2nc(C(C)C)no2)C1,% Inhibition,-10%
same,Z score,1.34
O=C(NCc1cccc(Cl)c1F)NC1CCC1,% Inhibition,-7%
same,Z score,1.35
C[C@@H](CC(=O)Nc1nccs1)n1cccn1,% Inhibition,-9%
same,Z score,1.68
Cn1nc(C(=O)N2CCN(S(=O)(=O)c3cccc(F)c3)CC2)ccc1=O,% Inhibition,-4%
same,Z score,0.62
CCOc1cnc(C(=O)NCCc2ccnn2C)cn1,% Inhibition,-5%
same,Z score,0.61
O=C(c1ccc(N2CCCC2=O)cc1)N1CC[C@H]2[C@H](CCC(=O)N2Cc2cccnc2)C1,% Inhibition,3%
same,Z score,-0.41
Cc1ccc(-c2nc(CNC(=O)C[C@H]3CNCCO3)[nH]c2-c2ccccn2)cc1,% Inhibition,24%
same,Z score,-2.12
CC[C@H](C)NC(=O)CN1CN(c2ccccc2)C2(CCN(C(=O)c3cccc(F)c3)CC2)C1=O,% Inhibition,-2%
same,Z score,0.29
COc1c(NC(=O)NC2CC2C)c(C)nn1C (stereo not drawn),% Inhibition,-2%
same,Z score,0.26
CCn1cc(CCN(C)Cc2cccc3[nH]ccc23)cn1,% Inhibition,-7%
same,Z score,1.1
C[C@@H](NC(=O)c1cccc2ccnn12)C(N)=O,% Inhibition,-4%
same,Z score,0.5
OCCCN1c2ccccc2Nc2nnc(-c3ccccc3)cc21,% Inhibition,36%
same,Z score,-4.06
C=CCC(O)(CC=C)[C@H](C)n1cc(Oc2ccccc2)c(=O)c(C(=O)O)c1,% Inhibition,6%
same,Z score,-1.15
O=C(Nc1ccc([C@@H](O)[C@H]2COCC(=O)N2CC2CC2)cc1)c1ccc(F)cc1,% Inhibition,-16%
same,Z score,2
Cc1ncc(C(=O)N(C)Cc2ccc3c(c2)CN(C)C3)c(=O)[nH]1,% Inhibition,-12%
same,Z score,1.74
O=C(CN1C(=O)COc2ccc(Cl)cc21)NC1CCCCC1,% Inhibition,-7%
same,Z score,0.84
CC(C)Cc1nc(CNS(C)(=O)=O)n(Cc2ccccc2Cl)n1,% Inhibition,14%
same,Z score,-2.67
O=C1[C@@H](Nc2nc(C3CC3)ns2)CCCN1CCO,% Inhibition,-19%
same,Z score,2.28
CC[C@H](NC(=O)NCC(=O)NCC(C)C)c1nc(C)cs1,% Inhibition,-13%
same,Z score,1.81
CCn1ncc(-c2nc3c([nH]2)CCCNC3=O)c1C,% Inhibition,-13%
same,Z score,1.74
Cc1cccc(CC2(NC(=O)N(C)Cc3nc(C)c[nH]3)CC2)c1,% Inhibition,-10%
same,Z score,1.29
CNC[C@H]1CCN(C(=O)COc2ccccc2-c2ccccc2)C1,% Inhibition,9%
same,Z score,-1.09
COc1cccc(C(=O)N2CCc3nc(N4CCN(c5ccc(F)cc5)CC4)nc(N(C)C)c3C2)c1,% Inhibition,-7%
same,Z score,0.91
CNc1ncc(CN(C)Cc2nc(-c3cccc(Cl)c3)oc2C)cn1,% Inhibition,0%
same,Z score,0.06
Cc1noc(CCNc2ncc(Cl)cc2F)n1,% Inhibition,-3%
same,Z score,0.4
CC(C)c1nnc(NC(=O)C2(C(=O)O)CCCCCC2)s1,% Inhibition,-6%
same,Z score,0.92
CN(C)c1cccc(S(=O)(=O)N2CCOC[C@H]2C(N)=O)c1,% Inhibition,16%
same,Z score,-1.72
